# In the supplement of paper PMC8728848:
# This is one part of the list.
# B1: F17-L (Escherichia coli) (protein)
# chain: GPDDYVPSQIAVNTSTLPGVVIGPADAHTYPRVIGELAGTSNQYVFNGGAIALMRGKFTPALPKIGSITYTFHQGNSRDSSDFDIYDIGVSGLGIIIGMAGYWPATPLVPINSSGIYIDPVGANTNPNTYNGATASFGARLFVAFVATGRLPNGYITIPTRQLGTILLEAKRTSLNNKGLTAPVMLNGGRIQVQSQTHHHHHH
# What was measured:
# Test in all cases: glycan array binding signal (z-score within array); higher = stronger binding
# Conditions in all cases: glycan notation: IUPAC condensed, linker removed
# [1] = biological target: Gal(b1-3)GlcNAc(b1-2)Man(a1-3)[GlcNAc(b1-4)][Gal(b1-3)GlcNAc(b1-2)Man(a1-6)]Man(b1-4)GlcNAc(b1-4)GlcNAc
# Procedure, shortened: (§1)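 The binding signal is a Z-score computed within each array and averaged over linkers. Arrays of the same protein sequence at different concentrations or buffers were also averaged together. Data originate from 3228 arrays in the Consortium for Functional Glycomics database, kept only where the protein sequence was available.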
# [2] = biological target: Gal(b1-3)GlcNAc(b1-2)[Gal(b1-3)GlcNAc(b1-6)]Man(a1-6)[Gal(b1-3)GlcNAc(b1-2)Man(a1-3)]Man(b1-4)GlcNAc(b1-4)GlcNAc
# Procedure, shortened: as §1
# [3] = biological target: Gal(b1-3)GlcNAc(b1-3)Gal(b1-3)GlcNAc
# Procedure, shortened: as §1
# [4] = biological target: Gal(b1-3)GlcNAc(b1-3)Gal(b1-4)Glc
# Procedure, shortened: as §1
# [5] = biological target: Gal(b1-3)GlcNAc(b1-3)Gal(b1-4)GlcNAc
# Procedure, shortened: as §1
# [6] = biological target: Gal(b1-3)GlcNAc(b1-3)Gal(b1-4)GlcNAc(b1-2)Man(a1-3)[Gal(b1-3)GlcNAc(b1-3)Gal(b1-4)GlcNAc(b1-2)Man(a1-6)]Man(b1-4)GlcNAc(b1-4)GlcNAc
# Procedure, shortened: as §1
# [7] = biological target: Gal(b1-3)GlcNAc(b1-3)Gal(b1-4)GlcNAc(b1-2)[Gal(b1-3)GlcNAc(b1-3)Gal(b1-4)GlcNAc(b1-6)]Man(a1-6)[Gal(b1-3)GlcNAc(b1-3)Gal(b1-4)GlcNAc(b1-2)Man(a1-3)]Man(b1-4)GlcNAc(b1-4)[Fuc(a1-6)]GlcNAc
# Procedure, shortened: as §1
# [8] = biological target: Gal(b1-3)GlcNAc(b1-3)Gal(b1-4)GlcNAc(b1-3)Gal(b1-4)GlcNAc(b1-2)[Gal(b1-3)GlcNAc(b1-3)Gal(b1-4)GlcNAc(b1-3)Gal(b1-4)GlcNAc(b1-6)]Man(a1-6)[Gal(b1-3)GlcNAc(b1-3)Gal(b1-4)GlcNAc(b1-3)Gal(b1-4)GlcNAc(b1-2)Man(a1-3)]Man(b1-4)GlcNAc(b1-4)[Fuc(a1-6)]GlcNAc
# Procedure, shortened: as §1
# [9] = biological target: Gal(b1-3)GlcNAc(b1-3)Gal(b1-4)GlcNAc(b1-6)[Gal(b1-3)GlcNAc(b1-3)]Gal(b1-4)Glc
# Procedure, shortened: as §1
# [10] = biological target: Gal(b1-3)GlcNAc(b1-3)Gal(b1-4)[Fuc(a1-3)]GlcNAc
# Procedure, shortened: as §1
# [11] = biological target: Gal(b1-3)GlcNAc(b1-3)Gal(b1-4)[Fuc(a1-3)]GlcNAc(b1-6)[Gal(b1-3)GlcNAc(b1-3)]Gal(b1-4)Glc
# Procedure, shortened: as §1
# [12] = biological target: Gal(b1-3)GlcNAc(b1-3)GalNAc
# Procedure, shortened: as §1
# [13] = biological target: Gal(b1-3)GlcNAc(b1-6)Gal(b1-4)GlcNAc
# Procedure, shortened: as §1
# [14] = biological target: Gal(b1-3)GlcNAc(b1-6)GalNAc
# Procedure, shortened: as §1
# [15] = biological target: Gal(b1-3)GlcNAc(b1-6)[Gal(b1-3)]GalNAc
# Procedure, shortened: as §1
# Gal(b1-3)GlcNAc6S = biological target: Gal(b1-3)GlcNAc6S
# Procedure, shortened: as §1
# [16] = biological target: Gal(b1-3)[Fuc(a1-4)]GlcNAc
# Procedure, shortened: as §1
# [17] = biological target: Gal(b1-3)[Fuc(a1-4)]GlcNAc(b1-2)Man
# Procedure, shortened: as §1
# [18] = biological target: Gal(b1-3)[Fuc(a1-4)]GlcNAc(b1-2)Man(a1-3)[Gal(b1-3)[Fuc(a1-4)]GlcNAc(b1-2)Man(a1-6)]Man(b1-4)GlcNAc(b1-4)[Fuc(a1-6)]GlcNAc
# Procedure, shortened: as §1
# [19] = biological target: Gal(b1-3)[Fuc(a1-4)]GlcNAc(b1-3)Gal(b1-3)[Fuc(a1-4)]GlcNAc
# Procedure, shortened: as §1
# [20] = biological target: Gal(b1-3)[Fuc(a1-4)]GlcNAc(b1-3)Gal(b1-4)[Fuc(a1-3)]GlcNAc
# Procedure, shortened: as §1
# [21] = biological target: Gal(b1-3)[Fuc(a1-4)]GlcNAc(b1-6)GalNAc
# Procedure, shortened: as §1
# [22] = biological target: Gal(b1-3)[GlcNAc(b1-6)]GalNAc
# Procedure, shortened: as §1
# [23] = biological target: Gal(b1-3)[Neu5Ac(a2-6)]GalNAc
# Procedure, shortened: as §1
# [24] = biological target: Gal(b1-3)[Neu5Ac(a2-6)]GlcNAc(b1-4)Gal(b1-4)Glc
# Procedure, shortened: as §1
# [25] = biological target: Gal(b1-3)[Neu5Ac(b2-6)]GalNAc
# Procedure, shortened: as §1
# Gal(b1-4)Gal = biological target: Gal(b1-4)Gal
# Procedure, shortened: as §1
# [26] = biological target: Gal(b1-4)GalNAc(a1-3)[Fuc(a1-2)]Gal(b1-4)GlcNAc
# Procedure, shortened: as §1
# [27] = biological target: Gal(b1-4)GalNAc(b1-3)[Fuc(a1-2)]Gal(b1-4)GlcNAc
# Procedure, shortened: as §1
# Gal(b1-4)Glc = biological target: Gal(b1-4)Glc
# Procedure, shortened: as §1
# Gal(b1-4)Glc6S = biological target: Gal(b1-4)Glc6S
# Procedure, shortened: as §1
# Gal(b1-4)GlcNAc = biological target: Gal(b1-4)GlcNAc
# Procedure, shortened: as §1
# [28] = biological target: Gal(b1-4)GlcNAc(a1-6)Gal(b1-4)GlcNAc
# Procedure, shortened: as §1
# Gal(b1-4)GlcNAc(b1-2)Man = biological target: Gal(b1-4)GlcNAc(b1-2)Man
# Procedure, shortened: as §1
# [29] = biological target: Gal(b1-4)GlcNAc(b1-2)Man(a1-3)Man(b1-4)GlcNAc(b1-4)GlcNAc
# Procedure, shortened: as §1
# [30] = biological target: Gal(b1-4)GlcNAc(b1-2)Man(a1-3)[Gal(b1-4)GlcNAc(b1-2)Man(a1-6)]Man(b1-4)GlcNAc(b1-4)GlcNAc
# Procedure, shortened: as §1
# [31] = biological target: Gal(b1-4)GlcNAc(b1-2)Man(a1-3)[Gal(b1-4)GlcNAc(b1-2)Man(a1-6)]Man(b1-4)GlcNAc(b1-4)[Fuc(a1-6)]GlcNAc
# Procedure, shortened: as §1
# [32] = biological target: Gal(b1-4)GlcNAc(b1-2)Man(a1-3)[Gal(b1-4)GlcNAc(b1-2)Man(a1-6)][Gal(b1-4)GlcNAc(b1-4)]Man(b1-4)GlcNAc(b1-4)[Fuc(a1-6)]GlcNAc
# Procedure, shortened: as §1
# [33] = biological target: Gal(b1-4)GlcNAc(b1-2)Man(a1-3)[Gal(b1-4)GlcNAc(b1-2)Man(a1-6)][GlcNAc(b1-4)]Man(b1-4)GlcNAc(b1-4)[Fuc(a1-6)]GlcNAc
# Procedure, shortened: as §1
# [34] = biological target: Gal(b1-4)GlcNAc(b1-2)Man(a1-3)[GlcNAc(b1-2)Man(a1-6)]Man(b1-4)GlcNAc(b1-4)GlcNAc
# Procedure, shortened: as §1
# [35] = biological target: Gal(b1-4)GlcNAc(b1-2)Man(a1-3)[GlcNAc(b1-4)][Gal(b1-4)GlcNAc(b1-2)Man(a1-6)]Man(b1-4)GlcNAc(b1-4)GlcNAc
# Procedure, shortened: as §1
# [36] = biological target: Gal(b1-4)GlcNAc(b1-2)Man(a1-3)[Man(a1-6)]Man(b1-4)GlcNAc(b1-4)GlcNAc
# Procedure, shortened: as §1
# [37] = biological target: Gal(b1-4)GlcNAc(b1-2)Man(a1-6)Man(b1-4)GlcNAc(b1-4)GlcNAc
# Procedure, shortened: as §1
# [38] = biological target: Gal(b1-4)GlcNAc(b1-2)Man(a1-6)[GlcNAc(b1-2)Man(a1-3)]Man(b1-4)GlcNAc(b1-4)GlcNAc
# Procedure, shortened: as §1
# [39] = biological target: Gal(b1-4)GlcNAc(b1-2)Man(a1-6)[Man(a1-3)]Man(b1-4)GlcNAc(b1-4)GlcNAc
# Procedure, shortened: as §1
binder,measurement,setting,value
B1,glycan array binding signal (z-score),[1],-0.109
same,glycan array binding signal (z-score),[2],-0.116
same,glycan array binding signal (z-score),[3],-0.152
same,glycan array binding signal (z-score),[4],1.3
same,glycan array binding signal (z-score),[5],-0.165
same,glycan array binding signal (z-score),[6],0.009
same,glycan array binding signal (z-score),[7],0.062
same,glycan array binding signal (z-score),[8],0.157
same,glycan array binding signal (z-score),[9],-0.133
same,glycan array binding signal (z-score),[10],-0.047
same,glycan array binding signal (z-score),[11],-0.188
same,glycan array binding signal (z-score),[12],-0.064
same,glycan array binding signal (z-score),[13],-0.099
same,glycan array binding signal (z-score),[14],-0.082
same,glycan array binding signal (z-score),[15],0.25
same,glycan array binding signal (z-score),Gal(b1-3)GlcNAc6S,-0.151
same,glycan array binding signal (z-score),[16],-0.161
same,glycan array binding signal (z-score),[17],-0.06
same,glycan array binding signal (z-score),[18],0.915
same,glycan array binding signal (z-score),[19],0.008
same,glycan array binding signal (z-score),[20],-0.057
same,glycan array binding signal (z-score),[21],-0.166
same,glycan array binding signal (z-score),[22],0.092
same,glycan array binding signal (z-score),[23],-0.135
same,glycan array binding signal (z-score),[24],0.247
same,glycan array binding signal (z-score),[25],-0.18
same,glycan array binding signal (z-score),Gal(b1-4)Gal,-0.183
same,glycan array binding signal (z-score),[26],0.026
same,glycan array binding signal (z-score),[27],-0.183
same,glycan array binding signal (z-score),Gal(b1-4)Glc,-0.096
same,glycan array binding signal (z-score),Gal(b1-4)Glc6S,-0.062
same,glycan array binding signal (z-score),Gal(b1-4)GlcNAc,-0.106
same,glycan array binding signal (z-score),[28],-0.163
same,glycan array binding signal (z-score),Gal(b1-4)GlcNAc(b1-2)Man,-0.037
same,glycan array binding signal (z-score),[29],-0.143
same,glycan array binding signal (z-score),[30],-0.104
same,glycan array binding signal (z-score),[31],-0.13
same,glycan array binding signal (z-score),[32],-0.022
same,glycan array binding signal (z-score),[33],-0.123
same,glycan array binding signal (z-score),[34],-0.165
same,glycan array binding signal (z-score),[35],-0.12
same,glycan array binding signal (z-score),[36],-0.073
same,glycan array binding signal (z-score),[37],-0.011
same,glycan array binding signal (z-score),[38],-0.152
same,glycan array binding signal (z-score),[39],-0.142
